Source: PubChem BioAssay AID1347073 (National Center for Advancing Translational Sciences (NCATS), 2019)
Among all 45,000 compounds or so, about 200 (0.44%) were called active. Inconclusive means that the source gave no clear call. Such entries were picked first, then a sample of the others. Calls come from the whole dose curve; as a rule, active = well fitted activation curve with a large enough effect; inconclusive = small, poorly fitted or top-dose-only effect; inactive = no such curve, though single readings can be large or run the other way. Where the call is inconclusive, the potency comes from a doubtful curve fit.

Assay: qHTS of TDP-43 Inhibitors: NCGC Sytravon Library Screen; note: nearly all actives have a fitted effect of over 55% in size; for growth rescue (activation): 0% is about no effect
Settings: yeast TDP-43 toxicity rescue, BacTiter-Glo growth, 24 h; growth rescue (activation): at 46.1 µM (top of the series)
Method in brief: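 TDP-43-expressing yeast, pregrown in raffinose, seeded at OD600 0.02 in galactose medium with compound for 24 hr at 30 deg C. Growth read by BacTiter-Glo luminescence, so rescue of toxicity appears as activation.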
Potency is the fitted concentration of half-maximal effect; tags give direction and shape of the fitted curve.

Structure (SMILES) | Potency | growth rescue (activation)
S=C(Nc1ccc(Oc2ccccc2)cc1)NC1CCCCCC1 | inconclusive: 20 µM [activator, partial curve, poor fit] | 
C#CCNC(=O)c1ccc(OCc2ccccc2)cc1Cl | inconclusive: 17.8 µM [activator, partial curve, poor fit] | 
O=C(Nc1ccc(Cl)c(C(F)(F)F)c1)C1Cc2c(-c3ccccc3)ccnc2O1 (stereo not drawn) | inconclusive: 28.2 µM [activator, single point] | 
Cc1cccc(C)c1NC(=O)/C(C#N)=C/c1ccsc1 | active: 20 µM | 
CC(C)CCOc1ccc(C(CC(N)=O)C(=O)O)cc1 (stereo not drawn) | inconclusive: 1 µM [activator, partial curve, poor fit] | 
O=C(OCc1cnc(Cl)s1)c1cccs1 | inconclusive: 12.6 µM [activator, single point] | 
CC1=C(C(=O)Nc2ccccc2Br)C2(CCC(C)CC2)OC1=O (stereo not drawn) | inconclusive: 15.8 µM [activator, partial curve, poor fit] | 
Cc1cc(C)c[n+](CC(=O)c2ccc(-c3ccccc3)cc2)c1 | inconclusive: 5.62 µM [activator, partial curve] | 
O=C(CSc1nc2ccccc2o1)NCc1ccco1 | inconclusive: 35.5 µM [activator, single point] | 
S=C(Nc1ccccc1)Nc1nc2ccccc2n1CCOc1ccc(Br)cc1 | inconclusive: 22.4 µM [activator, partial curve, poor fit] | 
CCN(CC)S(=O)(=O)c1ccc2c(c1)N(CC(=O)Nc1c(C)cccc1C)C(=O)C1CCCN21 (stereo not drawn) | inactive | 
CCOC(=O)c1oc2c(c1C)-c1nn(Cc3cccc(Cl)c3)cc1CC2 | inactive | 
O=C(Nc1nc2ccc(F)cc2s1)c1ccccn1 | inconclusive: 3.55 µM [activator, partial curve, poor fit] | 
CCc1nc2ccc(C(=O)NCC3CCCCC3)cn2c1N(C)Cc1nccs1 | inactive | 
Cc1ccc(SCCNC(=O)/C=C/c2cccc([N+](=O)[O-])c2)cc1 | inconclusive: 17.8 µM [activator, single point] | 
CCN1CCSc2ccc(C(=O)NCc3cccc(Br)c3)cc21 | inconclusive: 11.2 µM [activator, partial curve] | 
CCCCOc1ccccc1C(=O)N(Cc1sccc1C)C1CCS(=O)(=O)C1 (stereo not drawn) | inactive | 
Cc1cccc(NC(=S)NC2CCCC2)n1 | inconclusive: 15.8 µM [activator, single point] | 
COc1ccccc1C1=NC(c2ccc(F)cc2)N=C1C (stereo not drawn) | inconclusive: 15.8 µM [activator, single point] | 
Clc1ccc(CONc2ncnc3nonc23)c(Cl)c1 | inconclusive: 20 µM [activator, single point] | 
COc1cc(SC)ccc1C(=O)NCCOc1ccc(F)cc1 | inconclusive: 25.1 µM [activator, single point] | 
CC1=CC(c2ccccc2)n2nc(NC(=O)CCC(=O)O)nc2N1 (stereo not drawn) | inconclusive: 35.5 µM [activator, single point] | 

Structure (SMILES) | Potency | growth rescue (activation)
O=C(CSc1ncccn1)Nc1ccc2c(c1)OCO2 | inactive | 
Cc1cc(C)cc(OCC(=O)O/N=C(\N)c2ccccn2)c1 | inconclusive: 12.6 µM [activator, partial curve, poor fit] | 
Cc1ccc(C(=O)O/N=C(\N)c2cccnc2)cc1[N+](=O)[O-] | inconclusive: 7.08 µM [activator, partial curve] | 
CSCCC(NS(=O)(=O)c1ccc2c(c1)oc(=O)n2C)C(=O)NCc1ccccc1 (stereo not drawn) | inconclusive: 35.5 µM [activator, single point] | 
O=C(N/N=C/c1ccccc1[N+](=O)[O-])c1ccc2c(c1)OCCO2 | inconclusive: 35.5 µM [activator, single point] | 
COc1ccc2c(CC(=O)Nc3ccccc3N3CCOCC3)coc2c1 | inconclusive: 12.6 µM [activator, single point] | 
CC(O)(c1cccc(F)c1)c1nc(-c2ccc3ccccc3c2)cs1 (stereo not drawn) | inconclusive: 15.8 µM [activator, single point] | 
COCCCn1c(=N)c(C(=O)NCc2cccnc2)cc2c(=O)n3cccc(C)c3nc21 | inactive | 
O=C(COC(=O)c1ccc([N+](=O)[O-])o1)NC1CCCC1 | inconclusive: 15.8 µM [activator, single point] | 
CCCN1Cc2cccc(C(=O)NCCc3ccccc3)c2C1=O | inconclusive: 7.94 µM [activator, partial curve, poor fit] | 
CCN(c1ccc(OCC(=O)OCC(=O)c2c(N)n(C)c(=O)n(C)c2=O)cc1)S(=O)(=O)c1ccccc1 | inactive | 
CN(Cc1c(F)cccc1Cl)C(=O)c1cc2ccccc2o1 | inconclusive: 11.2 µM [activator, partial curve] | 
O=[N+]([O-])c1cc(CN2CCN(c3cccc(C(F)(F)F)c3)CC2)c2cccnc2c1O | inconclusive: 22.4 µM [activator, single point] | 
CC(=O)NC(c1cccc(F)c1)c1nc(-c2cccc(C(C)C)c2)cs1 (stereo not drawn) |  | inconclusive: 30.1% [activator]
Cc1cccc(OCc2nnc(-c3ccccc3)o2)c1 | inconclusive: 3.16 µM [activator, full curve] | 
CCN1CCN(C(=O)c2ccc3c(c2)N(Cc2ccc(F)cc2)C(=O)c2ccccc2S3(=O)=O)CC1 | inactive | 
CCOC(=O)C1(Cc2cccc(OC)c2)CCN(Cc2cc(OC)ccc2OC)CC1 | inactive | 
CC1CCCCN1c1nc(-c2ccc(C(C)(C)C)cc2)nc2ccccc12 (stereo not drawn) | inconclusive: 35.5 µM [activator, single point] | 
COc1ccc(CCNC(=O)c2c[nH]n3c(=O)c(Cc4ccccc4Cl)c(C)nc23)cc1OC | inactive | 
CCCOc1cccc(C(=O)NC(=S)Nc2ccccc2)c1 | inconclusive: 12.6 µM [activator, partial curve, poor fit] | 
C/C=C/c1ccc(OCCOc2ccc(C=O)cc2OC)c(OC)c1 | inconclusive: 20 µM [activator, single point] | 
